Measured values as given in patent US12496332B2 (priority 2019, dated 2025).

System: HIV long terminal repeat-luciferase reporter
Experiment: HIV long terminal repeat-luciferase reporter gene assay (pLTR-Luc)
Conditions: treatment with ROS scavenger
Protocol: For preparation of the luciferase reporter pLTR-Luc, the U3 and R regions of HIV1 promoter 5′-long terminal repeats (−453 to +82) were inserted into pGL3-basic (Promega, Madison, WI). After transfection of pLTR-Luc, experiment was conducted using a Promega luciferase assay kit according to the manufacturer's instructions.
From the result showing that the increase of HIV replication rate (activity of HIV long terminal repeat-luciferase reporter) due to ROS is inhibited by treatment with the representative ROS scavenger NAC, it was confirmed that the ROS produced due to HIV infection plays a major role in viral replication and infection (see FIG. 2, B).

CC(=O)N[C@@H](CS)C(=O)O [NAC, N-acetylcysteine]
increase of HIV replication rate (activity of HIV long terminal repeat-luciferase reporter) due to ROS: inhibited
